# ± gives the standard deviation of the averaged measurements. Some of the results follow.
# Test system: PfAP2-G AP2 domain (GST-tagged)
# Assay: gcPBM binding intensity (ln(normalized median fluorescence intensity)); higher = stronger DNA binding
# How it was run: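 Binding intensity values are the highest Masliner-normalised natural-log median intensity among replicate spots of either probe orientation. The binding step lasted 1 h in 1× PBS with 1% milk, 0.2 mg/ml BSA, 0.5% salmon testes DNA and 0.03% Triton X-100, using GST-tagged P. falciparum DNA-binding domains expressed in E. coli on an Agilent 4 × 180k array of primer-extended double-stranded 36-bp intergenic genomic probes plus negative controls. Alexa488 anti-GST antibody and a 488 nm scan detected bound protein.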
row,Sequence,gcPBM binding intensity (ln)
1,CATTTTTTAATAATAGCACACAGGACATACAAAACA [CACACA_site1245],10.8 ± 0.41
2,AAAATATAAAGTATTTGTACATAATATATTTTTAAA [XGTACX_site3494],10.7 ± 0.45
3,AATATATAAATAAATATATAAATAAATAATTGAAGC [CACACA_negctrl_site348],9.85 ± 0.099
4,TTCATTAATGTGTAATGTACTTGTAATATGGGATTA [XGTACX_site3903],11.1 ± 0.82
5,ACAGTATCTGGTAGCTGTACGAGTCGTAGAGTGTAG [XGTACX_site2011],11.3 ± 0.83
6,AATTATTTTATGAAAAGTACACATTGTTTTAATTCT [XGTACX_site4506],11.4 ± 0.98
7,TAAATAAGTATTACTAGTACACACAAGTTGTTAATC [XGTACX_site7074],11.3 ± 0.8
8,CATAAATCAGCCATAACACACATACATAAATACATA [CACACA_site4380],10.1 ± 0.13
9,TTAATTATAATTATATGTACGAACTTTTTTTTTTTT [XGTACX_site6586],11.2 ± 0.87
10,AGAAAAAAGAGGGATACACACAAACATATATATATA [CACACA_site5269],10.1 ± 0.25
11,TGTTCTCTTCTTTTTTATTTTCCAAAGTAATAAGTT [TGCATGCA_negctrl_site424],9.875 ± 0.035
12,TATATATATTTATATGCATGTAATATATTTGTATTG [TGCATGCA_site323],9.73 ± 0.16
13,TTAATTTTTAGAAGAACACACACATATATATTATGA [CACACA_site7969],10.1 ± 0.16
14,CAAAAGCGATACGGCACACATTTCCTGTTTAAATGA [CACACA_site5519],10.1 ± 0.15
15,AAATTGATTATAAATTGTACAAGAACATACAACCTT [XGTACX_site5986],10.8 ± 0.38
16,TTATATTTCAATTAAACATGCATTTTTGTGTAGCAC [TGCATGCA_site214],9.805 ± 0.092
17,TCATATAGATTATACACACACATATATAGATATATA [CACACA_site6587],10.1 ± 0.14
18,TTATATATTTTATTATTTATAATCTTTTTTTTATTT [CACACA_negctrl_site112],9.585 ± 0.049
19,TATTTGTAATATTATACACACATTATGTATTACAAA [CACACA_site3386],10.1 ± 0.11
20,TTTTGTATATTATATGTACACACAATAAGTTAATAT [CACACA_site8207],11.5 ± 1
21,TTATGAATACTTCAAGTGCATTTATTTTATATGACA,10.2 ± 0.23
22,ATATTCTAAATAAAGGGTACACAAAAATAATTAAAG [XGTACX_site5529],11.6 ± 0.91
23,ATTGTGGATATTCTTACACACAAATTTATATATAAA [CACACA_site2601],10.01 ± 0.064

row,Sequence,gcPBM binding intensity (ln)
1,TCCCAATTTATTATGTGTACTTATTATATACATATA [XGTACX_site4033],11.5 ± 0.93
2,TATCAAAGTAGAAGAGATCGATGTCATATTGTGATG [GTGCAC_negctrl_site42],9.925 ± 0.021
3,TATGAACTTTTGGGGGTGCCTTAAAATGTATATTCT,10.8 ± 0.41
4,ATATATATATAAAGCAGTACACACATTTATTTTAGA [XGTACX_site7226],11.3 ± 0.71
5,CACAGACACGGACACACACACATATATATATATATA [CACACA_site5248],11.4 ± 0.83
6,ATACACACATATATGTGTACATATACATATATATAT [XGTACX_site6744],11.5 ± 0.77
7,ATAATATGAAGAAGCACACTCAATTAAATACAGATA [CACACA_site4690],9.97 ± 0.071
8,AACAAAATAGGGAACACACACATGTCGATATATAAA [CACACA_site7265],10.3 ± 0.2
9,TTATTTTTTTTAGCATATACAAATATATATATATAT [GTGCAC_negctrl_site4],9.81 ± 0.24
10,CTAAAAGGATGATGAATGCACTATTATTTATATGGA,9.84
11,ATAGAATATTTTATTACACACAGAATAATAAAAAAT [CACACA_site6190],9.955 ± 0.007
12,AAGAATTATTTTTTATGTACTTATATGTCAATTTTC [XGTACX_site6676],11.3 ± 0.83
13,TATATAATATATTTATGTACGTATTTAAAAATTTAT [XGTACX_site160],11.6 ± 0.98
14,TGTATTTATTAATGTACACACATGCGTATGTTCGTT [CACACA_site5892],11.2 ± 0.76
15,GAAGGAAATAAATCAACACACATATATTATATATAT [CACACA_site2188],9.77 ± 0.057
16,AAAATTGAAGGTAGAAGTACATATTTATTTCAATAA [XGTACX_site8732],11.3 ± 0.86
17,TTGTGTGAGCAAGTAGTGCATAATATAAATAAAAAA [GTGCAC_site9802],10.3 ± 0.25
18,TGAAATTTGTTATATGCATGTAAAATATTACGACGA [TGCATGCA_site201],9.985 ± 0.049
19,CATAAATATTTGTGTTGTACAAATATATATATTTAT [XGTACX_site7363],11 ± 0.51
20,AAATATGTCAAATATACACACATAATAAATATAATA [CACACA_site2310],9.84 ± 0.099
21,TTATAAGATGATTATAAAATCAAATTCATTCTTTTA [CACACA_negctrl_site1338],9.385 ± 0.035
22,TAAACATAACAAAGGAGTACAAAACTTGATCAGTTC [XGTACX_site3114],11.3 ± 0.81
23,AAAAAACAAAAAAATACACACATAAAAAGGTTTTAG [CACACA_site3584],9.91 ± 0.18

row,Sequence,gcPBM binding intensity (ln)
1,ATACTATAATAATACACACTCATTAGATATATAAAG [CACACA_site7787],9.99 ± 0.12
2,TATGTATAAAAATAATGTACAAAATATATTATATGT [XGTACX_site2794],10.9 ± 0.4
3,ATCTTAGTTGAAATATAGAATTTATAATAAAAGTTA [GTGCAC_negctrl_site122],9.595 ± 0.064
4,TGTACAAATATGTACACACACACATATTTATTTATA [CACACA_site6419],11.5 ± 0.95
5,AACATCAAAATATGCACACAAACAATTAGCGGTAGT [CACACA_site2521],10.21 ± 0.042
6,GATTTACATTTTGATGAAAATAATAAAATGTGGAAA [TGCATGCA_negctrl_site409],10 ± 0.11
7,ATATTTTATTTTTAAAGTACAAAAGAAAAGAATAAT [XGTACX_site8247],11.1 ± 0.77
8,AAAAAAAAAGACAAAAGTACAAAGGTTCATAATTTA [XGTACX_site3978],11 ± 0.61
9,CTTATATTTGGACACACACACAATAAAATGAAAAAA [CACACA_site6614],10.8 ± 0.64
10,AAATCTTCATAATAAAGTACTTAACTCTTGGTGTTA [XGTACX_site6112],10.9 ± 0.52
11,TACACAAGAAAATTCACACACACACCGATATATATA [CACACA_site6008],9.9 ± 0.16
12,AAAAAAAAAAAAAAAACATGCAGTTAGTGGTTTTTT [TGCATGCA_site243],10.31 ± 0.078
13,TAACAATTATGCTGGTGTACGTTTGAAATTGGGTAT [XGTACX_site6846],11.3 ± 0.8
14,AAAAATTTCTATTTTTGTACTTACTTTTTAGTAATA [XGTACX_site5236],11.3 ± 0.96
15,GAAATGGGTAAACATACACACACACCGATATATATA [CACACA_site8610],10.1 ± 0.12
16,GAAAAAAAAATACATACACACAATATATTTATTTAT [CACACA_site3124],9.98 ± 0.21
17,GGAACGTTCATATTTCCACACACAAAAAATAAATAT [CACACA_site9101],10.2 ± 0.13
18,TTTATTTTAAAATATAGTACGCAAATAAAAATAAAT [XGTACX_site7783],11.4 ± 1
19,ATATGTATTAAGTGTACACATATAATGGGTTTTCTT [CACACA_site5328],11.6 ± 0.73
20,TATTATATATAATATTGTACATTAAAATATTAAAGA [XGTACX_site3698],10.9 ± 0.67
21,ATATGTAGTGTTATTTGTTCATTGTTTTAATTTTTA [CACACA_negctrl_site1394],10.215 ± 0.007
22,TATATACTATATATATGTACACAAAATTATTTTGAA [XGTACX_site8232],11.5 ± 0.84
23,TAATTATATAAATACACACACATACACCCAAATAAA [CACACA_site5819],10.5 ± 0.35

row,Sequence,gcPBM binding intensity (ln)
1,TTATATGCATATTTTTGTACACAACATTGTTGTATA [XGTACX_site8707],11.2 ± 0.64
2,AAATATTTCTGCAAGGTGCACTTTATAAATCTTTGA,10.5 ± 0.74
3,AAGAAATTTATTTATTGTACAATATATAATTTGTTT [XGTACX_site2478],10.9 ± 0.54
4,AATATGGGCATACATGTGCACTTTTTCCCGTGGTTT,10.4 ± 0.13
5,TTAATTAAATATAGGGGTACATATTATATATGTTTT [XGTACX_site3677],11.5 ± 0.88
6,ACGAAAAGATATATATGTACATATATTAAAAAAAAA [XGTACX_site1517],11.1 ± 0.61
7,TTATTTTTTTTTAGAGCACACATTTTTAATAAGGTA [CACACA_site2133],10.3 ± 0.4
8,ATGTATATTTTTATGTGTACGTAATAAAACATAATA [XGTACX_site7777],11.6 ± 0.86
9,TGAAGCAAAAACAAAACACACATATAAATAAATAAA [CACACA_site3925],9.875 ± 0.007
10,TTATTTTTTATAAAATGTACATATATTTTAAATATA [XGTACX_site4026],11.2 ± 0.75
11,ACCAATCCAAAAGAATGTACCCATGTTTTAAAATAT [XGTACX_site2907],11.2 ± 0.92
12,TATAAATTTGTTCAATGTACATGTAAAGATATAATC [XGTACX_site371],11.1 ± 0.67
13,TTCGTATGCATGAAATGTACATGATATTATTATAAA [XGTACX_site4542],10.9 ± 0.57
14,TTTTGTTAACATATAGAAAAGAACAAAGTTAAAAAG [XGTACX_negctrl_site462],10.13 ± 0.035
15,AGTATGTAAATGTGCCATATATATATTAAATACATA [CACACA_negctrl_site14],10.1 ± 0.23
16,GTTGGTAGGCGGTACGGTACACGTAGTATTTTTCTT [XGTACX_site4213],11.1 ± 0.67
17,ATATTATTTATTTTTAAATTATATTGATTATTTTTT [CACACA_negctrl_site451],9.45 ± 0.028
18,TATTTATAAATATACGCACACATTAATATATATATA [CACACA_site3969],10.4 ± 0.38
19,TAATGTTCCTATATAGTGCAATTATGTTTTATTTCT,10.06 ± 0.035
20,TTTTAATTTTTAAGACGTACTATCATTTGATAATAA [XGTACX_site3942],11.1 ± 0.8
21,TACGATGTTTTAAAATGTACATAAAAGTCACATAAG [XGTACX_site3297],11.1 ± 0.69

# From the supplement of paper PMC11417369
